Assay results as given in PubChem BioAssay AID1645882 (National Center for Advancing Translational Sciences (NCATS), 2021).
Values joined by “and” are separate entries in the source; they are usually repeats but may differ in a detail not shown here. Identical values can stand only once. Among all 16,000 compounds or so, about 120 (0.75%) were called active. Not shown: some 4% with an inconclusive outcome. Calls come from the whole dose curve; as a rule, active = well fitted inhibition curve with a large enough effect; inconclusive = small, poorly fitted or top-dose-only effect; inactive = no such curve, though single readings can be large or run the other way. This is one part of the list. More than one record can exist for a structure, and the calls need not agree.

Molecular target: Rap guanine nucleotide exchange factor 3 (Homo sapiens) (UniProt O95398)
Assay: Validation qHTS for antagonist of cAMP-regulated guanine nucleotide exchange factor 3 (EPAC1); note: nearly all actives have a fitted effect of over 75% in size
Conditions: EPAC1 Rap1B-BODIPY-GDP exchange, fluorescence; series mostly up to 150 µM; activity change, negative = inhibition: at the top concentration
How it was run: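 EPAC1 (100 nM) mixed with 250 nM RAP1B-BODIPY-GDP and 50 uM GDP; compounds in concentration series, 5 min at room temperature. Fluorescence (ex 480/em 540 nm) read every 5 min for 30 min; normalized to ATA control and DMSO.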
Potency is the fitted concentration of half-maximal effect.

Sequence of UniProt O95398 (O95398 whole entry, looked up): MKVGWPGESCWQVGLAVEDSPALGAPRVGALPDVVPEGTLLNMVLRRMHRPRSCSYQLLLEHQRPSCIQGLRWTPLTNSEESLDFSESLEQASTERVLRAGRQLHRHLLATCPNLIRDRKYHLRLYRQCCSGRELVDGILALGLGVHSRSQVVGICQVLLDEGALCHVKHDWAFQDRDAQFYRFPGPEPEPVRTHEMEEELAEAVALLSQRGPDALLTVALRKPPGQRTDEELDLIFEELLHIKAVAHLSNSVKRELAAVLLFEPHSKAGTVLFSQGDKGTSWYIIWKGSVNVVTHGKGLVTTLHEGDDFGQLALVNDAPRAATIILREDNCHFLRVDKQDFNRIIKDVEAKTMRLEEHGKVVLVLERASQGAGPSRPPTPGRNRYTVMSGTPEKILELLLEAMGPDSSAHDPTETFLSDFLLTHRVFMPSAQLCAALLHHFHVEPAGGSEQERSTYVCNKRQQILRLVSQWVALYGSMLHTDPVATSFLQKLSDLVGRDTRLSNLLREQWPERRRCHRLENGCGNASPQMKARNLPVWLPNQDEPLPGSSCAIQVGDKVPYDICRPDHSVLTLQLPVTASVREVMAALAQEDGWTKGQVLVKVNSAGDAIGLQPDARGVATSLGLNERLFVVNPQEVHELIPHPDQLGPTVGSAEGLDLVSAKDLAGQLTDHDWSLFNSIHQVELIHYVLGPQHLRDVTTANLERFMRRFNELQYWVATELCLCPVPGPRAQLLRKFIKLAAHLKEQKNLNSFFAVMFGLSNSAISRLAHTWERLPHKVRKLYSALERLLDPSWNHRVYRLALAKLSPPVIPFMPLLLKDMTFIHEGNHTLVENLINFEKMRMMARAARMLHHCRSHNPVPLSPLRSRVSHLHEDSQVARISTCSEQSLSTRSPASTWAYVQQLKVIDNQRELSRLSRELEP

Row | SMILES | activity change, negative = inhibition | Potency
1 | O=C(O)CCCCC1SCC2NC(=O)NC21 (stereo not given) | inactive: 4.97% | –
2 | O=C1CSC2(CCN(CCCN3c4ccccc4Sc4ccc(Cl)cc43)CC2)N1 | inactive: 10.2% | –
3 | Cc1ccc2c(c1)C(=O)[C@@]1(O)CCN(c3ccccc3)C1=N2 | inactive: -6.6% | –
4 | O=C1Nc2ccc(I)cc2/C1=C/c1cc(Br)c(O)c(Br)c1 | – | active: 89.1 µM and active: 79.4 µM and inactive
5 | CC(=O)N1CCC2(CCCN(C(c3ccccc3)c3ccccc3)C2)CC1 | inactive: -5.99% | –
6 | C[C@H](NC[C@H](O)CP(=O)(O)Cc1ccccc1)c1ccc(Cl)c(Cl)c1 | inactive | –
7 | O=c1c(-c2ccc(F)cc2)nc2cnc(N3CCOCC3)nc2n1-c1ccccc1 | inactive: 12.8% | –
8 | CCn1c(-c2ccccc2F)nc2cc(NC(C)=O)cc(C(=O)N3CCC[C@H]3C(=O)OC)c21 | inactive: -2.27% | –
9 | CC1CN(CCNC(=O)C2CCCc3c2[nH]c2ccccc32)Cc2ccccc2O1 (stereo not given) | inactive: -7.06% | –
10 | Cc1cn([C@H]2C[C@H](N=[N+]=[N-])[C@@H](CO)O2)c(=O)[nH]c1=O | inactive | –
11 | COC(=O)[C@@H](N)CS | inactive: 6.42% | –
12 | COc1ccc([C@@H]2Sc3ccccc3N(CCN(C)C)C(=O)[C@@H]2OC(C)=O)cc1 | inactive | –
13 | COC(=O)C1OC(=O)C2O[C@@]23[C@]2(C)C(OC(C)=O)CC4C(C)(C)C(=O)CC[C@]4(C)C2CC[C@@]13C (stereo not given in full) | inactive: 1.05% | –
14 | O=C(Nc1cccc(F)c1)N1CCC2(CC1)CCN(C(=O)c1ccco1)CC2 | inactive: 14.8% | –
15 | Cc1ccc(CN2CCOc3ccc(CN4CCC(O)(c5cccnc5)CC4)cc3C2)cc1C | inactive: 4.74% | –
16 | CCCCC[C@H](O)/C=C/[C@@H]1[C@@H](CC(=O)CCCCC(=O)O)[C@@H](O)C[C@H]1O | inactive: -8.76% [at 15.3 µM] | –
17 | Cc1onc(-c2c(Cl)cccc2Cl)c1C(=O)NC1C(=O)N2C1SC(C)(C)C2C(=O)O (stereo not given) | inactive: 15.8% | –
18 | C=C(CO)C1Cc2c(ccc3c2OC2COc4cc(OC)c(OC)cc4C2C3=O)O1 (stereo not given) | inactive: 11.4% | –
19 | O=C(/C=C/c1ccc(F)cc1)NCC1Cc2cccc(-c3ncccn3)c2O1 (stereo not given) | inactive: 3.84% | –
20 | COc1ccc2c(c1)C(=O)N(CCc1ccc(S(=O)(=O)NC(=O)NC3CCCCC3)cc1)C(=O)C2(C)C | inactive: 12.5% [at 75.8 µM] | –
21 | O=C(Oc1ccccc1)N1CCC2(CCCN(c3ncccn3)C2)CC1 | inactive: -2.48% | –
22 | NS(=O)(=O)Cc1noc2ccccc12 | inactive: 17.8% | –
23 | CCC1(C2CCN(C(=O)c3cc4ccccc4o3)CC2)NC(=O)N(CCc2scnc2C)C1=O (stereo not given) | inactive: 8.88% | –
24 | Cc1nc2cnc(N3CCOCC3)nc2n(Cc2cccs2)c1=O | inactive: 24.5% | –
25 | COc1ccc2[nH]cc(CCNc3nc(-c4cccc(NS(C)(=O)=O)c4)nc4ccccc34)c2c1 | inactive: 7.42% | –

Row | SMILES | activity change, negative = inhibition | Potency
26 | CC[C@H](/C=C/[C@@H](C)[C@H]1CC[C@H]2C3CC=C4C[C@@H](O)CC[C@]4(C)C3CC[C@]12C)C(C)C (stereo not given in full) | inactive: 9.97% | –
27 | O=C(c1ccc(N2CCC(NCCCn3ncc4ccccc43)CC2)cc1)N1CCc2ccccc2C1 | inactive: 17.5% | –
28 | CN(C)CCN(Cc1ccc(Cl)cc1)c1ccccn1 | inactive: -70.6% [at 75.8 µM] | –
29 | CC(C[N+](C)(C)C)OC(N)=O (stereo not given) | inactive | –
30 | CNC(=O)[C@@H]1C[C@H](Sc2nc3ccccc3[nH]2)CN1Cc1cccc(C(F)(F)F)c1 | inactive: -4.05% | –
31 | Cc1cc(C(=O)NCc2nc(-c3cccc(NC(=O)c4ccccc4)c3)oc2C)nc(C)n1 | inactive: 9.78% | –
32 | CN1CCN(c2ncc3nc(-c4ccc(Cl)cc4)c(=O)n(CCC#N)c3n2)CC1 | inactive: 7.46% | –
33 | c1ccc(Nc2cc(-c3ccoc3)ncn2)cc1 | inactive: 5.86% | –
34 | CC1CCC2(OC1)OC1CC3C4CCC5CC(O)CCC5(C)C4=CCC3(C)C1C2C (stereo not given) | inactive: 9.04% | –
35 | CC(C)C[C@@H](CC#N)N1CCN(Cc2ccccc2)CCC1=O | inactive: -3.84% | –
36 | CC[C@@H](C)[C@H](N)C(=O)O | inactive: 16.6% | –
37 | COCc1ccc(CN2Cc3ccccc3OC(c3ccccc3OC)C2)o1 (stereo not given) | inactive: 12.4% | –
38 | Cc1cc2c(c(-c3cnccn3)c1)OC(CNC(=O)c1cc(C(C)C)[nH]n1)C2 (stereo not given) | inactive: 5.99% | –
39 | CC(=O)Oc1cc(OC(C)=O)c2c(=O)cc(-c3ccc(OC(C)=O)c(OC(C)=O)c3)oc2c1 | inactive: -17.4% | –
40 | COc1cccc(-c2cncnc2NCCc2cnc[nH]2)c1 | inactive: -0.604% | –
41 | COc1cc2nc(N3CCN(C(=O)[C@H]4CCCO4)CC3)nc(N)c2cc1OC | inactive: 0.765% | –
42 | COCC(=O)Nc1cc(C(=O)NC2CCc3ccccc32)c2c(c1)nc(-c1ccncc1)n2C (stereo not given) | inactive: 17.4% | –
43 | CN[C@H]1CCc2cc(OC)c(OC)c(OC)c2-c2ccc(N[C@@H]3CCCCNC3=O)c(=O)cc21 | inactive: 6% | –
44 | NCCC(O)(P(=O)(O)O)P(=O)(O)O | inactive: 21.3% | –
45 | COc1ccc(Oc2ncc3nc(C)c(=O)n(-c4ccc(OC)cc4)c3n2)cc1 | inactive: 4.42% | –
46 | Cc1cccc2cc(CN(CC3CCCO3)C(=O)C3CC3)c(N(C)C)nc12 (stereo not given) | inactive: 9.03% | –
47 | COc1ncc2nc(-c3cn(C)c4ccccc34)c(=O)n(C[C@H]3CCCO3)c2n1 | inactive: 19.3% | –
48 | CN1CCc2cc(NC(=O)Nc3cccnc3)ccc21 | inactive: -3.99% [at 75.8 µM] | –
49 | O=C(c1ccccc1F)N(Cc1cc2cc3c(cc2nc1N1CCOCC1)CCC3)CC1CCCO1 (stereo not given) | inactive: -14.5% | –
50 | CCCCC/C=C\CC1OC1CCCCCCCC(=O)O (stereo not given) | inactive: 14.9% [at 1.57 µM] | –
